# Where two headings read alike, the source gives them in different places. No constants are given. Whether binding was seen depends on the method and setting. Binding seen in cells or lysates may run through a third protein. Some entries that bind do so weakly or less than the wild type. For part of these data: Sequences can lack the tags named with a protein.
# By UniProt entry, the sequences of proteins in these tests, tags left out. Where a name states a change or a piece, a line headed by the entry shows the natural chain unless it says otherwise.
# UniProt Q9D8X5: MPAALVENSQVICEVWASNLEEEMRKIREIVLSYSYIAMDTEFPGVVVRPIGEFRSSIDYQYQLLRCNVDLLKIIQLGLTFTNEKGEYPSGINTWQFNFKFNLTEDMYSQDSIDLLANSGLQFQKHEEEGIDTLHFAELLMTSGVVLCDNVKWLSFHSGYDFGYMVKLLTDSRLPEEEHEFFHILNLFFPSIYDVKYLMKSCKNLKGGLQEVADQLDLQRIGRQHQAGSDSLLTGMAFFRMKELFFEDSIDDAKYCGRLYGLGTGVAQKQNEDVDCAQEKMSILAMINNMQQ
# UniProt Q60809: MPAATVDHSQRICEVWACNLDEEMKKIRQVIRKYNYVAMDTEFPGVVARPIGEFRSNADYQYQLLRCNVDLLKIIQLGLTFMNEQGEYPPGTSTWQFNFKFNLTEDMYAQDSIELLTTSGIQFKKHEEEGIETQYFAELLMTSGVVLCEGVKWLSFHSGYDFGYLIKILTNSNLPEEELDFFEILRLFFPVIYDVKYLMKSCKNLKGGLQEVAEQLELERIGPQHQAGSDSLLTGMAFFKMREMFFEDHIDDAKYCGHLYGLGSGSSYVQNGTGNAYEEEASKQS
# UniProt Q6ZQ08: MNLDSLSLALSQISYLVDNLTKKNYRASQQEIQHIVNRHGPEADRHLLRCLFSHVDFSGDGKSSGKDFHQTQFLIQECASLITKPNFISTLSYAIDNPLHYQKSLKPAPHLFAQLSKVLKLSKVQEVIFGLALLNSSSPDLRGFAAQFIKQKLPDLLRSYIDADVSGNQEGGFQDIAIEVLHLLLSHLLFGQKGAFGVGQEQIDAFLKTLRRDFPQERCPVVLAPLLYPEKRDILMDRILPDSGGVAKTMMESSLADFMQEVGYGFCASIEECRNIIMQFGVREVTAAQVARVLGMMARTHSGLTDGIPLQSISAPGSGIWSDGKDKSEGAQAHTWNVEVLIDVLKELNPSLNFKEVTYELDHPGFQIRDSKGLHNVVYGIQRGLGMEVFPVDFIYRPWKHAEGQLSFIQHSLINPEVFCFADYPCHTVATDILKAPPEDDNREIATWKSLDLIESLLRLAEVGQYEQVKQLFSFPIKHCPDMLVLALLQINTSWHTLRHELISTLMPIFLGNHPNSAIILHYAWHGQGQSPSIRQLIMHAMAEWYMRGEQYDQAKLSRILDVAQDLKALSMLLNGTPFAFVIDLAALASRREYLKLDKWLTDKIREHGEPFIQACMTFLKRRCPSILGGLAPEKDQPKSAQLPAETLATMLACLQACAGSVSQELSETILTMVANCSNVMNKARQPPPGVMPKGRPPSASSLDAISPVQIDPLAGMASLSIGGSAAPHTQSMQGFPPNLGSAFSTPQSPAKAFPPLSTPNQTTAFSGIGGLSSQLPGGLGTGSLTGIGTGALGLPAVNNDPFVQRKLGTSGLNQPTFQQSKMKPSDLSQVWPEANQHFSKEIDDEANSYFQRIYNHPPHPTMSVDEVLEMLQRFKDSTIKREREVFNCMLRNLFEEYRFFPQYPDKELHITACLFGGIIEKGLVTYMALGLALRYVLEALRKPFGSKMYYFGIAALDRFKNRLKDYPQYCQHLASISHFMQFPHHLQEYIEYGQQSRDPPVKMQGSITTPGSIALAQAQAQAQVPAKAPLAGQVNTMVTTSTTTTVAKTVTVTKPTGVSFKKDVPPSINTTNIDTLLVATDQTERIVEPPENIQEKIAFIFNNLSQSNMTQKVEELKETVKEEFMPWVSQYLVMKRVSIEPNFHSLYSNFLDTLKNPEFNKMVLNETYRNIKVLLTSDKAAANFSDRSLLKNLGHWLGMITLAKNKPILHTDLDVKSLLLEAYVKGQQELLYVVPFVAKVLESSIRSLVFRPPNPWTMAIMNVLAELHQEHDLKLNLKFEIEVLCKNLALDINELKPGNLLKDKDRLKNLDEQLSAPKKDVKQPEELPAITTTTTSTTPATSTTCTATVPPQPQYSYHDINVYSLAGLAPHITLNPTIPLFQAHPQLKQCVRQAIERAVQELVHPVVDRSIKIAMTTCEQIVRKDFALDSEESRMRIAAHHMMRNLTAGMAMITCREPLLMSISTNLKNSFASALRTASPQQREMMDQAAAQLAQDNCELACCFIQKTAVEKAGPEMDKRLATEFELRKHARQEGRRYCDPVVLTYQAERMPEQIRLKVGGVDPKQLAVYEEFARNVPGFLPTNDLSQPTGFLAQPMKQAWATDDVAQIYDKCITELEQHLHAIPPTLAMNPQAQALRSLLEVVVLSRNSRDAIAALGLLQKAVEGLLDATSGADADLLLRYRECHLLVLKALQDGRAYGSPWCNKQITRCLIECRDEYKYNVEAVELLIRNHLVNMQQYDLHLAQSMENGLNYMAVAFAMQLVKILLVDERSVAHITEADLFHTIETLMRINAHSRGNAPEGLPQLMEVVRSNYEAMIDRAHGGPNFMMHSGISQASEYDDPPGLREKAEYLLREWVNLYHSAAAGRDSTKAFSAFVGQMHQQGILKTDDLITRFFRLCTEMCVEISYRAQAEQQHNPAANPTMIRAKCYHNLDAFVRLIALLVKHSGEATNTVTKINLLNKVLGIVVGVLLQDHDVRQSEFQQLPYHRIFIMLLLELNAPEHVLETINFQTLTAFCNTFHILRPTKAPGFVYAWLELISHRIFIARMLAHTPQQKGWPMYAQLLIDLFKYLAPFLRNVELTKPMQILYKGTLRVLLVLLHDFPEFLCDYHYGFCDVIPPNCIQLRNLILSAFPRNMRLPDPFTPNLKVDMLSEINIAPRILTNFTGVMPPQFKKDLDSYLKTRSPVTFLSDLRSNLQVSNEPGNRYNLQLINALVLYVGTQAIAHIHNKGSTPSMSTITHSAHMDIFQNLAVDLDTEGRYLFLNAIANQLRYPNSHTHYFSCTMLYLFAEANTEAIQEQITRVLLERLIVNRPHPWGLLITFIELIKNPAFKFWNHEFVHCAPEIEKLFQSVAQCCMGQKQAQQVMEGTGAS
# UniProt P29341: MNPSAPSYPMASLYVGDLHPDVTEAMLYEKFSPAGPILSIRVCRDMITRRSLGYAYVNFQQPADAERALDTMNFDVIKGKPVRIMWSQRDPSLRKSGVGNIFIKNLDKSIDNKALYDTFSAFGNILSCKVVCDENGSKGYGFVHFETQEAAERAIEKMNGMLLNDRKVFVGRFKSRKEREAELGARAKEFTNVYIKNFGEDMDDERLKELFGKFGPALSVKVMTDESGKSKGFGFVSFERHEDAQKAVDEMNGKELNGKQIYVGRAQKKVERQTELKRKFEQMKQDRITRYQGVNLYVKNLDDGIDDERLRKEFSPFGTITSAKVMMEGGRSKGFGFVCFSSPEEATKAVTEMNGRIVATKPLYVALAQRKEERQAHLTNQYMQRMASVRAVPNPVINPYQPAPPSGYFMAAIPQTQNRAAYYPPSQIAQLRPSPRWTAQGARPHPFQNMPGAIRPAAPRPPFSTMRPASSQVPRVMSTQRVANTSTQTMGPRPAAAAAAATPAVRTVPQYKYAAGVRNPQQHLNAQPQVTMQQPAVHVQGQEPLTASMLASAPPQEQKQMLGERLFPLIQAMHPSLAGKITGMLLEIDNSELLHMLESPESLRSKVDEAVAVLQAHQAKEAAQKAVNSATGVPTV
# T1: FLAG-Tob1 (mouse) (UniProt Q61471)
# T1 sequence: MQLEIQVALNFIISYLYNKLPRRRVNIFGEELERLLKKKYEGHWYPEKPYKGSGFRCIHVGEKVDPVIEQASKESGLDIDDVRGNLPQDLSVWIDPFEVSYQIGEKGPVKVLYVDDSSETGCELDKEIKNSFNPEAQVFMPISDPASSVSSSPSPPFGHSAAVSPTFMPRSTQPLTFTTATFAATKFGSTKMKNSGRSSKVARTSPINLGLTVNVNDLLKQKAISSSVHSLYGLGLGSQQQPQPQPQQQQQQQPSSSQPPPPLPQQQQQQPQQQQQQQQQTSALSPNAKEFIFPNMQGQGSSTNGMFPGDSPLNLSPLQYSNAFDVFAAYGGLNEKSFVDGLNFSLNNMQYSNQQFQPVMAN
# Columns and labels:
# Assay in all cases: co-IP; lysate of mouse ESCs expressing the FLAG-tagged bait; treated with 20 μg/ml RNase A for 40 min at 37°C before the Co-IP; anti-FLAG antibody (or control IgG) with Protein A/G magnetic beads overnight at 4°C; 5 washes with lysis buffer; Western blot
# [1] = target: FLAG-tagged Cnot8 FL (normal Cnot8 full length) (mouse) (UniProt Q9D8X5)
# [2] = target: T1, FLAG-Tob1 (mouse)
# [3] = target: FLAG-tagged Cnot7 FL (mouse) (UniProt Q60809)
# [4] = target: 3×FLAG-pHIV-EGFP-Cnot8 E247A/Y260A (Mut3) (mouse) (UniProt Q9D8X5)
# [5] = target: FLAG-tagged Cnot7 FL (mouse) (UniProt Q60809); remark: listed apart in the source
# [6] = target: FLAG-tagged Cnot8 FL (normal Cnot8 full length) (mouse) (UniProt Q9D8X5); remark: listed apart in the source
molecule,measurement,setting,value
Cnot1 (from UniProt Q6ZQ08 1-2375),binding,[1],binds
Cnot8 (from UniProt Q9D8X5 1-292) (enzyme),binding,[2],binds
Cnot7 (from UniProt Q60809 1-285) (enzyme),binding,[1],no binding
cytoplasmic poly(A)-binding protein 1 (Pabpc1) (from UniProt P29341 1-636),binding,[2],binds
same,binding,[3],binds
same,binding,[1],binds
"Tob1 (protein, UniProt Q61471 1-362) MQLEIQVALNFIISYLYNKLPRRRVNIFGEELERLLKKKYEGHWYPEKPYKGSGFRCIHVGEKVDPVIEQASKESGLDIDDVRGNLPQDLSVWIDPFEVSYQIGEKGPVKVLYVDDSSETGCELDKEIKNSFNPEAQVFMPISDPASSVSSSPSPPFGHSAAVSPTFMPRSTQPLTFTTATFAATKFGSTKMKNSGRSSKVARTSPINLGLTVNVNDLLKQKAISSSVHSLYGLGLGSQQQPQPQPQQQQQQQPSSSQPPPPLPQQQQQQPQQQQQQQQQTSALSPNAKEFIFPNMQGQGSSTNGMFPGDSPLNLSPLQYSNAFDVFAAYGGLNEKSFVDGLNFSLNNMQYSNQQFQPVMAN",binding,[4],no binding
same,binding,[5],binds
same,binding,[6],binds

# Reference: article PMC9071485
